Experimental data: PubChem BioAssay AID504333 (National Center for Advancing Translational Sciences (NCATS), 2011)
About 16,000 (4.4%) of roughly 360,000 compounds were called active. This list was built around the results that the source calls inconclusive (neither active nor inactive); the mix of calls is not that of the screen. Calls follow the shape of the dose curve; as a rule, active = well fitted inhibition curve with a large enough effect; inconclusive = small, poorly fitted or top-dose-only effect; inactive = no such curve, though single readings can be large or run the other way. Potencies beside an inconclusive call are fits to weak or partial responses and may not hold up.

molecular target: Bromodomain adjacent to zinc finger domain protein 2B (Homo sapiens) (UniProt Q9UIF8); test: qHTS Assay for Inhibitors of BAZ2B; settings: AlphaScreen BAZ2B-H3K14Ac peptide displacement; series mostly up to 114 µM; also: nearly all actives have a fitted effect of over 60% in size
UniProt Q9UIF8, sequence (Q9UIF8 whole entry, looked up, the tested form may be a part): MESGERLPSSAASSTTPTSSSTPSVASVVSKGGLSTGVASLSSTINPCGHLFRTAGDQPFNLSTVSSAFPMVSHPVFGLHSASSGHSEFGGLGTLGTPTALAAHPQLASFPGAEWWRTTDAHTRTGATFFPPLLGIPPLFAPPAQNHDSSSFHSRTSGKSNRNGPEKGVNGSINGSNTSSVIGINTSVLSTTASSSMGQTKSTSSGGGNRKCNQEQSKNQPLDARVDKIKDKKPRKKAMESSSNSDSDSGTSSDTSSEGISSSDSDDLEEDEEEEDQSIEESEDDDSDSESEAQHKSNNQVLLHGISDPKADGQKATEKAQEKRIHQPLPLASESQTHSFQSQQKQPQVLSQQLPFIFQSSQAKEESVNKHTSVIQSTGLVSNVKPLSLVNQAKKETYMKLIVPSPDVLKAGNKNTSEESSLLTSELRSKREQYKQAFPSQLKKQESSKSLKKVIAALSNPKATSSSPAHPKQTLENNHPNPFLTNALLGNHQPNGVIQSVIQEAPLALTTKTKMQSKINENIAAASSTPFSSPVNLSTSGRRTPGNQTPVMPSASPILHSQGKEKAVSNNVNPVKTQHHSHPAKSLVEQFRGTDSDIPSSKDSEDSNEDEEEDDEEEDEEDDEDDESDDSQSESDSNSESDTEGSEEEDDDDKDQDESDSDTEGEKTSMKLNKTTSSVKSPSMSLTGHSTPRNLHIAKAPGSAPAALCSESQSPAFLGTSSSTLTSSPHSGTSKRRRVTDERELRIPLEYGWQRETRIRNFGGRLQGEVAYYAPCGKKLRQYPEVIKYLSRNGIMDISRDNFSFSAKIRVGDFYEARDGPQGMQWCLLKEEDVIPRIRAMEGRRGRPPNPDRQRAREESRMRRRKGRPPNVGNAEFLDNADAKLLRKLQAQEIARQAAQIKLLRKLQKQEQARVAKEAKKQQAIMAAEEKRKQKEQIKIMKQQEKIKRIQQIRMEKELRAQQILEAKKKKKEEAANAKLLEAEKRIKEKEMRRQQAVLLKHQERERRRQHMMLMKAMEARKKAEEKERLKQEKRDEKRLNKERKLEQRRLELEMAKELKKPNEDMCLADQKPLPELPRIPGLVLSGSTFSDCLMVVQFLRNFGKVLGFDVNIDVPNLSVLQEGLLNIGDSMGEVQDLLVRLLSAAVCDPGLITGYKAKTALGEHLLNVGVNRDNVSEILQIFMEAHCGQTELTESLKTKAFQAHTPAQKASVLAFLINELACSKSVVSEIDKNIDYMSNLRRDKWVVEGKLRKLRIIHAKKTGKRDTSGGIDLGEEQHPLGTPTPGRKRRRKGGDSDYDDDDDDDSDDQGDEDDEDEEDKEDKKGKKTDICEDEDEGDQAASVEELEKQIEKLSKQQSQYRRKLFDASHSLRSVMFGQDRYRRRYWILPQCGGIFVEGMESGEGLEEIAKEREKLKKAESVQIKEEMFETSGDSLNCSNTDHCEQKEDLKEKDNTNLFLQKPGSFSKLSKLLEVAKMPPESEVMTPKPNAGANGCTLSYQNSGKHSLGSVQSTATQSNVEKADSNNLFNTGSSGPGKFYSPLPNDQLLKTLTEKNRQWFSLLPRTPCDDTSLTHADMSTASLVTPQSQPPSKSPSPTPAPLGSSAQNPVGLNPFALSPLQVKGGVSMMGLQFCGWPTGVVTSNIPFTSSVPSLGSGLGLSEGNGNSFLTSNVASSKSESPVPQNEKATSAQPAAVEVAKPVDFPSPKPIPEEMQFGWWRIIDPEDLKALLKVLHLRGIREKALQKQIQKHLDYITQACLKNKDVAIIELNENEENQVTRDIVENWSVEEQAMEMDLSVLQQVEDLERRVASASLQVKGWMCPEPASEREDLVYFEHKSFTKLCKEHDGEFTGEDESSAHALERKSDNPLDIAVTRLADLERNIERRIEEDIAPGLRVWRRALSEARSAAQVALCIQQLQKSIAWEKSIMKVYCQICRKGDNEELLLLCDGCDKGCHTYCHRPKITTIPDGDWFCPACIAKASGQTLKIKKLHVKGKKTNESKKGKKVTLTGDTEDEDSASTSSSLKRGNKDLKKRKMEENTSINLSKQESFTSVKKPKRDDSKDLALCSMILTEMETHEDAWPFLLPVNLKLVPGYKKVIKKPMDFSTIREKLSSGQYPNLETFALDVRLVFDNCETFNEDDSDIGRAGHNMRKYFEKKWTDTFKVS
Summary of the method: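 Compounds, titrated to a top concentration of 110 uM, were incubated 30 min at room temperature with preformed BAZ2B/acetyl-K14 H3 peptide complex (50 nM each). Proximity signal was measured by AlphaScreen after 20 min with beads.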
Potency is read from the fitted curve at half-maximal effect; tags tell the direction and shape of the fitted curve.

Compound	Potency
Cc1cc(C)c[n+](-c2[nH]c(=O)sc2/C=N/N=C(\[O-])c2cccnc2)c1	inconclusive: 89.1 µM [inhibitor, single point]
COc1cc(NC(=O)CCc2nnc3ccc(NCc4ccco4)nn23)cc(OC)c1	inconclusive: 70.8 µM [inhibitor, partial curve]
CC1(C(=O)O)Oc2cccnc2NC1=O (centres undefined)	inconclusive: 89.1 µM [inhibitor, single point]
Cc1cc(C(=O)COC(=O)c2ccc(Cl)c(S(N)(=O)=O)c2)c(C)n1C1CC1	inconclusive: 50.1 µM [inhibitor, partial curve]
Cc1nnc(N/N=C\c2ccc(-c3ccccc3[N+](=O)[O-])o2)n1N	active: 70.8 µM
C=CCn1cc(/C=N/Nc2nc3ccccc3[nH]2)c2ccccc21	active: 39.8 µM
CCCc1nc2nc(C)c(NS(=O)(=O)c3ccc(C4CCCCC4)cc3)c(=O)n2[nH]1	inactive
Cc1ccccc1NC(=O)c1ccc2c(c1)C(=O)N(CC(C)C)C2=O	inactive
O=C1CC(Cc2ccccc2)C(=O)N1CCCn1ccnc1 (centres undefined)	active: 50.1 µM
CNC(=S)/N=C(/Nc1ccccc1)c1ccccc1	inconclusive: 89.1 µM [inhibitor, single point]
NC(=O)C1CCN(C(c2ccccc2F)c2nnnn2Cc2ccco2)CC1 (centres undefined)	inconclusive: 89.1 µM [inhibitor, single point]
COC(=O)c1cc2c(ccn2C)n1C	inconclusive: 89.1 µM [inhibitor, single point]
Cc1cc(C)c2[nH]c(C(=O)Nc3ccc(F)cc3Br)cc2c1	inactive
Cc1csc(Nc2ccc(Cl)cc2)n1	inconclusive: 39.8 µM [inhibitor, partial curve]
COc1ccc(Nc2nnc(-c3ccc(C(N)=O)cc3)c3ccccc23)cc1	inconclusive: 100 µM [inhibitor, single point]
Cc1cc(C)c2nc3c(c(C(=O)O)c2c1)CCC3	inconclusive: 79.4 µM [inhibitor, single point]
Cc1ccccc1C(OCCN(C)C)C1CCCCC1 (centres undefined)	inconclusive: 89.1 µM [inhibitor, single point]
CN1C(C(=O)Nc2ccccn2)=C(O)c2sccc2S1(=O)=O	active: 50.1 µM
COc1ccc(CN2CCN(S(=O)(=O)c3ccc(F)cc3)CC2)cc1OC	active: 31.6 µM
COc1ccc(-c2[nH]ncc2N=Nc2cc(C)cc(C)c2)cc1	inconclusive: 12.6 µM [inhibitor, partial curve]
Cc1nc(-c2ccc(S(=O)(=O)N3CCCN(CCc4ccccc4)CC3)s2)cs1	active: 56.2 µM
CN(Cc1c(O)ccc2c1oc(=O)c1ccccc12)C1CCCCC1	active: 5.62 µM
COc1cc(/C=C2\CCC/C(=C\c3ccc(O)c(OC)c3)C2=O)ccc1O	inconclusive: 44.7 µM [inhibitor, partial curve]
CCCCS(=O)(=O)N1C2=NC(C(=O)OC)=C(C(=O)OC)[C@@H]3N(C)c4ccc(OC)cc4[C@]23C[C@H]1C(=O)OC	inconclusive: 31.6 µM [inhibitor, full curve]
N#CC(C#N)=C(Nc1ccc(F)cc1)SCc1cccc(F)c1	inconclusive: 70.8 µM [inhibitor, single point]

Compound	Potency
COCCNC(=O)c1ccc(-n2c(-c3ccccc3)cc3c2CCCCC3)cc1	inconclusive: 79.4 µM [inhibitor, single point]
CC(=O)NNC(=S)NC(=O)c1cccc([N+](=O)[O-])c1	inconclusive: 89.1 µM [inhibitor, single point]
Cn1ccnc1SCC(=O)Nc1ccc(Cl)cn1	inconclusive: 100 µM [inhibitor, partial curve]
C/C(=N\N(C)C)C1=C(O)c2ccccc2C1=O	inactive
COc1cc(/C=N/n2c(C)nc3ccccc3c2=O)cc(OC)c1O	inactive
COc1ccc(OC)c(C(=O)c2ccc(C(=O)O)cc2)c1	inconclusive: 7.08 µM [inhibitor, single point]
COc1cccc(OC)c1C(=O)N1CCN(Cc2ccncc2)CC1	active: 20 µM
Cc1cc(Cl)ccc1OC(C)C(=O)NCCCn1ccnc1 (centres undefined)	inconclusive: 50.1 µM [inhibitor, partial curve]
CCOc1ccc(-c2nc(N)ncc2Oc2ccccc2Br)c(O)c1	inconclusive: 89.1 µM [inhibitor, single point]
COCCN(CC(=O)Nc1cccc(C)c1C)C(=O)c1cc2ccccc2cc1OC	inconclusive: 89.1 µM [inhibitor, single point]
COc1ccccc1OCCNc1cc(N2CCOCC2)ccc1[N+](=O)[O-]	inconclusive: 39.8 µM [inhibitor, full curve, poor fit]
COc1ccc(OC)c(CCNC(=O)c2ccc(NC3=NC4CS(=O)(=O)CC4S3)cc2)c1 (centres undefined)	inactive
N#CC1=C2SCC(O)(c3ccccc3)N2C(=O)CC1c1ccccc1 (centres undefined)	inconclusive: 79.4 µM [inhibitor, single point]
COC(C)(C)[C@@H](O)COc1c2ccoc2cc2oc(=O)ccc12	inactive
O=C(NC1CCCCC1)N1CCC(n2cnc3ccccc32)CC1	inconclusive: 89.1 µM [inhibitor, single point]
Cc1ccc(S(=O)(=O)c2nc(-c3ccccc3Cl)oc2N2CCCCCC2)cc1	inconclusive: 8.91 µM [inhibitor, full curve]
CN1CCCN(C(=O)c2ccc(Br)cc2)CC1	inconclusive: 89.1 µM [inhibitor, single point]
COc1ccc(C(=O)N2CCN(c3ccccc3)CC2)cc1S(=O)(=O)N1CCOCC1	inactive
CCc1ccc(NC(=O)C(=O)NCC(c2ccc3c(c2)OCO3)N2CCOCC2)cc1 (centres undefined)	inactive
COCCCNC(=O)c1cccs1	inactive
CCN(CC)C(=O)Cn1cc(C(=O)C(=O)NCCc2c[nH]c3ccccc23)c2ccccc21	inconclusive: 25.1 µM [inhibitor, single point]
Brc1ccc2[nH]c3c(N4CCc5ccccc5C4)ncnc3c2c1	inconclusive: 89.1 µM [inhibitor, single point]
COc1ccc(OCc2cc(C(=O)N3CCCC3)no2)c2ccccc12	inconclusive: 50.1 µM [inhibitor, partial curve]
Cc1cc(Cl)ccc1OC(C)C(=O)Nc1ccc([N+](=O)[O-])cn1 (centres undefined)	inconclusive: 44.7 µM [inhibitor, partial curve]
O=C(c1cccc(C(=O)N2CCN(c3ccc(F)cc3)CC2)c1)N1CCN(c2ccc(F)cc2)CC1	inconclusive: 89.1 µM [inhibitor, single point]

Compound	Potency
CN(C)c1ccc(CNc2nc(-c3ccco3)nn2S(C)(=O)=O)cc1	inconclusive: 44.7 µM [inhibitor, partial curve]
Cc1ccc(S(=O)(=O)NCCCn2ccnc2)cc1	inconclusive: 89.1 µM [inhibitor, single point]
COc1ccc(NC2CCCN(C(=O)CCOc3ccccc3)C2)cc1 (centres undefined)	active: 25.1 µM
Cc1ccc(CNC(=O)C(=O)NCC(c2cccs2)S(=O)(=O)c2cccs2)cc1 (centres undefined)	inactive
CC(C)(C)OC(=O)N1CCC(c2c(C(=O)Nc3ccc4c(c3)OCO4)cnn2-c2ccc(F)cc2F)CC1	inconclusive: 25.1 µM [inhibitor, single point]
O=C(N/N=C/C(Br)=C/c1ccccc1)c1cc(-c2ccco2)[nH]n1	inconclusive: 70.8 µM [inhibitor, single point]
N#C/C(=C\Nc1ccc2c(c1)OCCO2)c1nc(-c2ccccc2)cs1	inconclusive: 22.4 µM [inhibitor, single point]
COc1ccc(Cc2nnc(SCC(=O)NCc3ccco3)o2)cc1	inconclusive: 56.2 µM [inhibitor, partial curve]
O=C(Nc1cccnc1Cl)c1ccc(Cl)cc1	inactive
O=C(Nc1ccc(Cl)cn1)Nc1cccs1	inconclusive: 7.08 µM [inhibitor, single point]
CN(CC(=O)Nc1ccc(Cl)c(C(F)(F)F)c1)C(=O)CNC(=O)C1CCCCC1	inactive
c1coc(-c2nc3ccccn3c2Nc2ccc3c(c2)OCCO3)c1	active: 44.7 µM
O=C(O)c1ccc2c(c1)C(=O)N([C@H](Cc1cccc3ccccc13)C(=O)O)C2=O	inactive
Cc1ccc(N2C(SCC(=O)O)=NC(=Nc3cccc(C)c3)C23CCCC3)cc1	active: 20 µM
CCOC(=O)CN1C(=O)CC(c2ccccc2)C1=O (centres undefined)	inactive
Cc1ccc(/C=C2/C(=O)N(c3ccccc3)C(=S)N2C)o1	inconclusive: 22.4 µM [inhibitor, partial curve]
CN1CCc2c(sc3c2C(=O)NC(c2cccs2)N3)C1 (centres undefined)	inactive
CC(=NCCCn1ccnc1)C1=C(O)c2ccccc2C1=O	active: 44.7 µM
Cc1sc2ncnc(N3CCC(C(=O)Nc4nc(-c5cccs5)cs4)CC3)c2c1C	inactive
CN(C)c1ccc(C2CNC(c3ccc(Cl)c([N+](=O)[O-])c3)c3[nH]c4ccccc4c32)cc1 (centres undefined)	active: 10 µM
CN1CCc2c(sc3c2C(=O)NC(c2ccc(-c4cccc(Cl)c4)o2)N3)C1 (centres undefined)	active: 39.8 µM
O=C1C(Cl)=C(N2CCN(c3ccccc3[N+](=O)[O-])CC2)C(=O)c2ccccc21	active: 2.51 µM
CC(C)c1ccc(S(=O)(=O)Nc2ccc(O)c(Sc3nc4ccccc4s3)c2)cc1	active: 25.1 µM
COc1ccc(NC(=O)CS(=O)(=O)c2cn(CC(=O)N3CCOCC3)c3ccccc23)cc1OC	inactive
